The full ranking holds about 33,000 sequences; the median of “E-score (-0.5 to 0.5)” is about -0.043, and the highest 2% start at about 0.37. The list shows a part of the results.
What follows are sequences tested against T1, Upc2 (UniProt Q12151) (assay: PBM E-score (8-mer binding enrichment) (E-score (-0.5 to 0.5)); higher = stronger / more preferred TF binding; most listed sequences are background and not binding sites). Settings: protein concentration: 200 nM; construct: GST-full length.
T1 sequence: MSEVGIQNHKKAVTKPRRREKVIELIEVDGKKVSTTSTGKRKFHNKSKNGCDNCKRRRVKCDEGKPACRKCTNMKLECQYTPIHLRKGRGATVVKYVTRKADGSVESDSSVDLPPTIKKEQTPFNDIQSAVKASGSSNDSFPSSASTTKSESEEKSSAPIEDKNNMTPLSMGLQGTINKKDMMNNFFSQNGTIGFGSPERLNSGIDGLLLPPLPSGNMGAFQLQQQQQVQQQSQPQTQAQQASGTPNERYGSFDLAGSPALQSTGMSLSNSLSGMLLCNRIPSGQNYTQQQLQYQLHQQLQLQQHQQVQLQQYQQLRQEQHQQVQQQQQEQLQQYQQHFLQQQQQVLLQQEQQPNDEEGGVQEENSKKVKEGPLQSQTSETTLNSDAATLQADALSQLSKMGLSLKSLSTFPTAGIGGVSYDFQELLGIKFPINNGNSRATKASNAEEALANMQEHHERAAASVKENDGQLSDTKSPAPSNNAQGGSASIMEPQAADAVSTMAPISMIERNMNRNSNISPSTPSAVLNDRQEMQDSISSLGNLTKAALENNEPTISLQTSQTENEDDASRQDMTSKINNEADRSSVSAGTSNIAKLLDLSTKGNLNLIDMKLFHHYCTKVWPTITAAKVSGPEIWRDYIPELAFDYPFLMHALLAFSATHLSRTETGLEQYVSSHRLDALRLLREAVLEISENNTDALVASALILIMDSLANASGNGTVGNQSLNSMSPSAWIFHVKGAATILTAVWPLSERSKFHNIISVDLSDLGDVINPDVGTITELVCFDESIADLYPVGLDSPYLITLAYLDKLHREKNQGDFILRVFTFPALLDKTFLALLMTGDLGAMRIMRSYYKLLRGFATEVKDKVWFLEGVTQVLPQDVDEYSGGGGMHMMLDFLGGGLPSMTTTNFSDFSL
Procedure: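 Universal 'all 10-mer' protein binding microarrays (Agilent AMADID 015681) probed with GST-tagged S. cerevisiae TFs (full-length or DBD) made by in vitro transcription/translation (PURExpress), about 100-200 nM. Bound TF was detected with fluorescent anti-GST. Each ungapped 8-mer (which stands for itself and its reverse complement) is scored by the PBM enrichment score (E-score), a modified Wilcoxon-Mann-Whitney statistic from -0.5 to +0.5, computed with the Universal PBM Analysis Suite. Scale: above 0.35 generally sequence-specific binding.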

Row | Sequence | PBM E-score
1 | CCCGAATA | 0.0775
2 | AAGTAGAC | 0.14
3 | AAATTATT | -0.0093
4 | ACTTATCA | -0.0343
5 | ATAAGGGG | -0.132
6 | TAGACACA | -0.245
7 | AGTTGTCA | -0.152
8 | TCTATCCA | -0.247
9 | ACTTCCTG | -0.063
10 | GAATCAAA | 0.0043
11 | ATACTTAC | -0.0095
12 | CGATGCAG | -0.069
13 | TAATGCCA | 0.0601
14 | GCCTCAAC | -0.112
15 | ATGTCGCA | 0.194
16 | CAGAGGGA | -0.093
17 | CGGAACAC | 0.0172
18 | AGTCGTTG | 0.0644
19 | ATACGCGC | 0.342
20 | AAGAAGAA | 0.0557
21 | GCGATATA | 0.212
22 | CAGGGGGG | -0.182
23 | AGCTATTG | -0.0943
24 | CCTACCGC | -0.154
25 | AGGTGTTC | -0.0204

Row | Sequence | PBM E-score
26 | ATGACTGG | -0.145
27 | CCGTCCCG | -0.0753
28 | GAGCTATC | 0.00145
29 | CCTTATGC | -0.0537
30 | GCGGCGGA | 0.0383
31 | TGCATTAA | -0.054
32 | TCTTACCA | -0.0239
33 | CAAGTAGA | -0.199
34 | AGGGACGA | -0.0992
35 | CCGGCAAC | -0.0689
36 | CTAGGAAA | -0.208
37 | CGTCACCC | -0.0645
38 | CATAGCGA | -0.1
39 | GTCCCTGA | -0.187
40 | AGGTGGGG | -0.152
41 | CACAGTTC | -0.00124
42 | CACTTTCG | 0.0897
43 | AAAATGGC | -0.0658
44 | GAGATGGC | -0.179
45 | GTCCAGAA | -0.16
46 | CTCAACTA | -0.111
47 | AGGGTCAG | -0.182
48 | AGACAGAC | 0.0288
49 | ATATAGAA | 0.0234
50 | GTAGACTA | 0.0718

Row | Sequence | PBM E-score
51 | GAACGAAC | 0.441
52 | AAAGTCCA | -0.267
53 | AGCCTGGA | -0.343
54 | AATCCCTA | 0.128
55 | AGGGCTAG | -0.183
56 | ACTATCCT | -0.149
57 | ACCCCGAC | -0.0754
58 | CGGGCTAA | -0.177
59 | TAATAGAA | -0.0162
60 | AGTCGAGG | -0.177
61 | ACTTACCA | -0.0049
62 | CCTTGGGA | -0.313
63 | AACCATTC | -0.193
64 | CAATGCCA | -0.193
65 | CGTTCTTA | 0.226
66 | ACATCGCC | -0.0963
67 | CGCCATAC | 0.192
68 | AGTTTTAT | -0.0125
69 | CCGAAGTA | -0.0211
70 | TAGAAGAA | -0.0237
71 | AATCAACT | 0.0341
72 | CAAATAAC | 0.107
73 | TGACTGCA | -0.125
74 | CTGGAGAC | -0.192
75 | AAAGGACG | 0.0636

Row | Sequence | PBM E-score
76 | AAAAATTG | -0.0658
77 | TGGCATAA | 0.0729
78 | CGACATAG | 0.00392
79 | CGTACGCA | 0.345
80 | TCCTGCAA | -0.187
81 | GGGGCGAC | -0.231
82 | CAAGACCG | -0.00149
83 | ACTGCCTC | -0.118
84 | CATGAGAC | -0.0663
85 | CTCTGAAG | -0.148
86 | ATCATCCA | -0.118
87 | TGGCCTAA | -0.106
88 | AACCGTCT | -0.118
89 | TGCATCAA | 0.0205
90 | ATATAAAG | -0.138
91 | GGCGCATA | -0.0159
92 | CCCACTAG | -0.252
93 | GTGAGCTA | -0.206
94 | CACATCGC | -0.112
95 | AAAACGTC | 0.0906
96 | AAAGCCAC | -0.0581
97 | AGGCCCGC | -0.0638
98 | GTCAAAAC | -0.0715
99 | GATAGTAA | -0.00953
100 | TATGTACA | -0.0556

Row | Sequence | PBM E-score
101 | AGTAATAG | 0.0647
102 | CGATGGCC | 0.0435
103 | CTCGACTA | -0.223
104 | AGGGGCCA | -0.215
105 | CGTAAGCC | 0.208
106 | GTAGGTGA | -0.0476
107 | TCAGATGA | -0.197
108 | ATCTGTAG | -0.143
109 | TACACGGA | 0.0585
110 | GCCACAGC | -0.348
111 | AACTCAAA | 0.063
112 | AAGCGACG | 0.276
113 | CAGGGCAC | 0.112
114 | GCAGTACC | -0.124
115 | GGTTTCGA | -0.121
116 | ATGGGGAG | -0.16
117 | TATCTAAA | 0.173
118 | AGATTGTA | 0.0617
119 | AAAAAGCC | -0.00267
120 | GATCGCGA | 0.0566
121 | CTGTACAA | 0.0214
122 | TACGGAGA | 0.361
123 | TGACGAAA | 0.00712
124 | CCGGTAAG | 0.0284
125 | GCGCTCTA | -0.0458

Row | Sequence | PBM E-score
126 | TAACGCGA | 0.101
127 | CCGTACCC | 0.379
128 | CGCCGCCA | -0.117
129 | AAAACCTA | 0.135
130 | GTTTAATA | 0.203
131 | ACTGACTA | 0.102
132 | AAGCCGAA | -0.0482
133 | ACCTCTAT | -0.189
134 | AATCCAAG | 0.00442
135 | TCCGGACA | -0.224
136 | TACCTATA | 0.0647
137 | AAGTAAAA | -0.118
138 | GCACACAA | -0.163
139 | AAGTGTCA | -0.265
140 | GCTCGTAA | 0.456
141 | GCCACTAA | -0.181
142 | ACTCGGCA | 0.0324
143 | ATGATACC | 0.0985
144 | AACGCTGC | 0.135
145 | CAAATGTG | -0.0181
146 | AGGGAGAT | -0.319
147 | AAGTGAAC | 0.0685
148 | ACAAAAGC | -0.0967
149 | GTGCTCCA | -0.122
150 | CGGAGACC | -0.178

Row | Sequence | PBM E-score
151 | CTGACAGA | -0.0162
152 | TATCAATA | 0.0556
153 | AACCACAC | 0.0708
154 | ATTGGAAA | -0.124
155 | AGTAAAAT | 0.0174
156 | GCCTAACA | -0.122
157 | GTACCTTA | 0.184
158 | CAATGCAA | -0.0983
159 | AGCCGCCA | -0.269
160 | TCACGGAA | -0.0808
161 | AAGCATCC | -0.266
162 | CGGGCTCA | 0.0574
163 | CTATTAAG | -0.227
164 | GCCGTAGC | 0.0955
165 | CGTCAGAG | -0.186
166 | GTGTTACA | -0.0687
167 | GACGACAA | 0.0707
168 | AAACGCTA | 0.183
169 | AGGCGATA | -0.0724
170 | ACTGTGCT | -0.127
171 | ACCCGAGA | 0.101
172 | AGACCCGG | -0.216
173 | CGGTGAGA | -0.195
174 | CAATACAC | 0.0216
175 | CACTGGCG | -0.104

Row | Sequence | PBM E-score
176 | GGGCCTAC | -0.135
177 | ATGTCCCG | -0.17
178 | GCACCACC | -0.319
179 | CCTACAAA | -0.177
180 | CCACTAAA | -0.00434
181 | ACAACGCA | 0.0502
182 | AGTTGGAG | -0.146
183 | CTGGTCTC | -0.23
184 | GAACTGAC | -0.154
185 | GCAACCAC | -0.227
186 | ACCCATTG | -0.0491
187 | ACGTTGCC | -0.0673
188 | ATCCGTCG | 0.242
189 | TAATCCCA | -0.147
190 | GATTGGAC | -0.219
191 | CGCCTCAG | -0.17
192 | ATTTGATC | -0.0896
193 | AATACCCC | -0.221
194 | CCTAGAAC | 0.0471
195 | CCTATCTA | -0.0968
196 | ATGGAATA | -0.0124
197 | AAAACCAG | -0.0476
198 | CAACGCGC | 0.0935
199 | AGCAACAA | -0.0972
200 | ACGGTGAT | 0.0893

Row | Sequence | PBM E-score
201 | ATATTGCG | 0.0841
202 | ACTCATTA | 0.0785
203 | ACAGAGCA | 0.0385
204 | GTCCTCGA | -0.123
205 | AATATCTC | 0.0702
206 | CATCGTGG | -0.0907
207 | ACCGTGGG | -0.154
208 | TGCAGTAA | -0.228
209 | GTCCGGAA | -0.11
210 | ACTAGGCA | -0.197
211 | ACAGAGAT | 0.00119
212 | CACGCACG | -0.226
213 | ATTGGGTG | -0.114
214 | ATTTTGCC | -0.194
215 | GACACCAC | -0.159
216 | AGATAAAT | 0.0119
217 | ACGGCAGC | 0.13
218 | CGTAGTGA | -0.0166
219 | ACATACTC | 0.0912
